Assay results published in patent US20150335738A1 (priority 2012, published 2015).

What was measured:
human SIgA in saliva [1] = type: in vivo
SIgA in saliva = settings: 20 mg beta carotene per day; compared to the placebo group; cited from earlier work
IgA = settings: maternal mice, supplementation during pregnancy and lactation; cited from earlier work
human SIgA in saliva [2] = system: human SIgA in saliva
serum IgA = settings: CVID patients with initial low Vitamin A levels; cited from earlier work

Compound: CC1=C(/C=C/C(C)=C/C=C/C(C)=C/C=C/C=C(C)/C=C/C=C(C)/C=C/C2=C(C)CCCC2(C)C)C(C)(C)CCC1 [Beta-carotene, beta-carotene]
- SIgA saliva, 3 days before exercise (human SIgA in saliva [1]; 3 days before exercise): 128 microgram IgA per ml of saliva
- Recovery in saliva (human SIgA in saliva [1]; Reference (before exercise) = 100%): 77%
- SIgA saliva, day 1 after exercise (human SIgA in saliva [1]; day 1 after exercise): 67 microgram IgA per ml of saliva
- SIgA saliva, day 6 after exercise (human SIgA in saliva [1]; day 6 after exercise): 98 microgram IgA per ml of saliva
- saliva secretion of SIgA (SIgA in saliva): did not increase
- IgA transfer from maternal milk to neonates (IgA): useful for enhancing IgA transfer

Compound: CCCCCCCCCCCCCCCC(=O)OC/C=C(C)/C=C/C=C(C)/C=C/C1=C(C)CCCC1(C)C [retinylpalmitate]
- before treatment saliva SIgA (human SIgA in saliva [2]; before treatment, baseline of the individual): 113 mg/L
- after treatment saliva SIgA (human SIgA in saliva [2]; one day after end of treatment, oral, two times per day for 3 weeks, 5 ml (50 mg)): 96 mg/L
- SIgA % recovery (human SIgA in saliva [2]; saliva, reference (before treatment) = 100%): 85%

Compound: Vitamin A
- serum IgA levels (serum IgA): improved serum IgA levels
